IC50 is the fitted dose that halves viability relative to control wells, and lower means more sensitive; a limit (>, <) means that the fit lies beyond the doses tested. AUC sums up the same curve from the lowest dose to the 256-fold higher top dose; values near 1 show little effect.

Drawing on the supplement of paper PMC4967469, this text covers AUC and IC50 for 66 cell lines.

Compound in the assay: FC(F)c1nc2ccccc2n1-c1nc(N2CCOCC2)nc(N2CCOCC2)n1 [ZSTK474]
Briefly: Viability of human cancer cell lines after 72 h of drug (GDSC screen). The method, then: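 Human cancer cell lines in 384-well plates, medium with 10% serum, drug for 72 h over a 256-fold dose range (nine 2-fold or five 4-fold steps up to the top dose). Adherent lines were fixed and stained with the nucleic acid dye Syto60, suspension lines read with resazurin; signal relative to control wells, capped at 0 and 100%. One two-parameter sigmoid per drug and line, fitted in a mixed model over all curves with the slope shared within a line.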

Take “H2795 (mesothelioma, adherent, top dose 5.12 µM)”: the AUC was determined as 0.632 and the IC50 (as a rule, the point on the concentration scale where inhibition reaches its midpoint) stood at 735 nM.
Taken in the same sequence, the figures for “H2803 (mesothelioma, adherent, top dose 5.12 µM)” were 0.879 and greater than 5120 nM.
The corresponding values for “H2804 (mesothelioma, adherent, top dose 5.12 µM)” are 0.826 and 3510 nM.
Taken in the same sequence, the figures for “H2818 (mesothelioma, adherent, top dose 5.12 µM)” were 0.981 and greater than 5120 nM.
With “H2869 (mesothelioma, adherent, top dose 5.12 µM)”, the AUC stood at 0.756 and the concentration for half-maximal inhibition (IC50) stood at 2140 nM.
On to “H3118 (head and neck, adherent, top dose 5.12 µM)”, for which the AUC is 0.706 and the IC50 worked out at 1290 nM.
Taken in the same sequence, the figures for “H3255 (lung adenocarcinoma, adherent, top dose 5.12 µM)” were 0.876 and greater than 5120 nM.
“H-EMC-SS (chondrosarcoma, adherent, top dose 5.12 µM)”: the AUC worked out at 0.785 and the IC50 came to 2900 nM.
The corresponding values for “HA7-RCC (kidney, adherent, top dose 5.12 µM)” are 0.726 and 1520 nM.
The corresponding values for “HAL-01 (lymphoblastic leukaemia, suspension, top dose 5.12 µM)” are 0.104 and 20.3 nM.
Taken in the same sequence, the figures for “HARA (lung squamous cell carcinoma, adherent, top dose 5.12 µM)” were 0.631 and 786 nM.
On to “HC-1 (hairy cell leukaemia, suspension, top dose 5.12 µM)”, for which the AUC turned out to be 0.506 and the 50% inhibitory concentration (IC50) stood at 332 nM.
The corresponding values for “HCC38 (breast, adherent, top dose 5.12 µM)” are 0.852 and 4450 nM.
In the case of “HCC70 (breast, adherent, top dose 5.12 µM)”, the AUC worked out at 0.66 and the IC50 was 882 nM.
Taken in the same sequence, the figures for “HCC202 (breast, adherent, top dose 5.12 µM)” were 0.578 and 569 nM.
For the cell line “HCC1143 (breast, adherent, top dose 5.12 µM)”, the AUC turned out to be 0.781 and the IC50 was determined as 3070 nM.
The corresponding values for “HCC1187 (breast, suspension, top dose 5.12 µM)” are 0.586 and 545 nM.
The corresponding values for “HCC1395 (breast, adherent, top dose 5.12 µM)” are 0.943 and greater than 5120 nM.
For “HCC1419 (breast, adherent, top dose 5.12 µM)”, the AUC was 0.754 and the IC50 is 2410 nM.
The corresponding values for “HCC1428 (breast, adherent, top dose 5.12 µM)” are 0.946 and greater than 5120 nM.
In the case of “HCC1500 (breast, adherent, top dose 10.24 µM)”, the AUC is 0.515 and the IC50 is 703 nM.
The corresponding values for “HCC1569 (breast, adherent, top dose 5.12 µM)” are 0.584 and 588 nM.
Taken in the same sequence, the figures for “HCC1599 (breast, suspension, top dose 5.12 µM)” were 0.669 and 1020 nM.
Taken in the same sequence, the figures for “HCC1806 (breast, adherent, top dose 5.12 µM)” were 0.911 and greater than 5120 nM.
Consider “HCC1937 (breast, adherent, top dose 5.12 µM)”, for which the AUC worked out at 0.793.
With “HCC1954 (breast, adherent, top dose 5.12 µM)”, the AUC is 0.596 and the half-inhibitory concentration (IC50) amounted to 616 nM.
The corresponding values for “HCC2157 (breast, suspension, top dose 5.12 µM)” are 0.851 and 4240 nM.
Taken in the same sequence, the figures for “HCC2218 (breast, suspension, top dose 5.12 µM)” were 0.692 and 1280 nM.
Taken in the same sequence, the figures for “HCC2998 (large intestine, adherent, top dose 5.12 µM)” were 0.908 and greater than 5120 nM.
Consider “HCC-15 (lung squamous cell carcinoma, adherent, top dose 5.12 µM)”, for which the AUC turned out to be 0.905 and the IC50 was greater than 5120 nM.
The corresponding values for “HCC-33 (small cell lung carcinoma, adherent, top dose 5.12 µM)” are 0.904 and greater than 5120 nM.
Taken in the same sequence, the figures for “HCC-44 (lung adenocarcinoma, adherent, top dose 5.12 µM)” were 0.863 and 4250 nM.
The corresponding values for “HCC-56 (large intestine, adherent, top dose 5.12 µM)” are 0.846 and 3860 nM.
Regarding “HCC-78 (lung adenocarcinoma, adherent, top dose 5.12 µM)”, the AUC came out at 0.609 and the IC50 is 671 nM.
The corresponding values for “HCC-827 (lung adenocarcinoma, adherent, top dose 5.12 µM)” are 0.752 and 1930 nM.
Taken in the same sequence, the figures for “HCE-4 (oesophagus, adherent, top dose 5.12 µM)” were 0.928 and greater than 5120 nM.
The corresponding values for “HCT-15 (large intestine, adherent, top dose 5.12 µM)” are 0.792 and 2470 nM.
Take “HCT-116 (large intestine, adherent, top dose 5.12 µM)”: the AUC came to 0.855 and the IC50 worked out at 3760 nM.
Taken in the same sequence, the figures for “HD-MY-Z (Hodgkin lymphoma, adherent, top dose 5.12 µM)” were 0.727 and 1420 nM.
Taken in the same sequence, the figures for “HDLM-2 (Hodgkin lymphoma, suspension, top dose 5.12 µM)” were 0.848 and 3700 nM.
The corresponding values for “HDQ-P1 (breast, adherent, top dose 5.12 µM)” are 0.837 and 4400 nM.
For “HEC-1 (endometrium, adherent, top dose 5.12 µM)”, the AUC came out at 0.941 and the IC50 is greater than 5120 nM.
Taken in the same sequence, the figures for “HEL (acute myeloid leukaemia, semi-adherent, top dose 5.12 µM)” were 0.761 and 1540 nM.
“HGC-27 (stomach, adherent, top dose 5.12 µM)”: the AUC is 0.557 and the IC50 came out at 445 nM.
Regarding “HH (T-cell leukaemia, suspension, top dose 5.12 µM)”, the AUC came out at 0.262 and the IC50 was 52.4 nM.
For the cell line “HL-60 (acute myeloid leukaemia, suspension, top dose 5.12 µM)”, the AUC was 0.527 and the IC50 came out at 377 nM.
Taken in the same sequence, the figures for HLE (liver, adherent, top dose 5.12 µM) were 0.899 and greater than 5120 nM.
The corresponding values for “HMV-II (melanoma, adherent, top dose 5.12 µM)” are 0.888 and greater than 5120 nM.
The corresponding values for “HN (head and neck, adherent, top dose 5.12 µM)” are 0.967 and greater than 5120 nM.
On to “HO-1-N-1 (head and neck, adherent, top dose 5.12 µM)”, for which the AUC was 0.93 and the half-inhibitory concentration (IC50) is greater than 5120 nM.
The corresponding values for “HO-1-u-1 (head and neck, adherent, top dose 5.12 µM)” are 0.928 and greater than 5120 nM.
The corresponding values for “HOP-62 (lung adenocarcinoma, adherent, top dose 5.12 µM)” are 0.865 and 4500 nM.
The corresponding values for “HOP-92 (large cell lung carcinoma, adherent, top dose 5.12 µM)” are 0.947 and greater than 5120 nM.
Consider “HOS (osteosarcoma, adherent, top dose 5.12 µM)”, for which the AUC came to 0.95 and the IC50 is greater than 5120 nM.
The corresponding values for “HPAC (pancreas, adherent, top dose 5.12 µM)” are 0.786 and 3250 nM.
The corresponding values for “HPAF-II (pancreas, adherent, top dose 5.12 µM)” are 0.642 and 895 nM.
Taken in the same sequence, the figures for “HSC-2 (head and neck, adherent, top dose 5.12 µM)” were 0.883 and 4750 nM.
On to “HSC-3 (head and neck, adherent, top dose 5.12 µM)”, for which the AUC worked out at 0.948 and the IC50 was greater than 5120 nM.
The corresponding values for “HSC-4 (head and neck, adherent, top dose 5.12 µM)” are 0.945 and greater than 5120 nM.
Turning to “HSC-39 (stomach, suspension, top dose 5.12 µM)”, the AUC was determined as 0.893 and the IC50 came out at 4600 nM.
Taken in the same sequence, the figures for “HT55 (large intestine, adherent, top dose 5.12 µM)” were 0.99 and greater than 5120 nM.
“HT (B-cell lymphoma, suspension, top dose 5.12 µM)”: the AUC came out at 0.605 and the IC50 was 605 nM.
The corresponding values for “HT-3 (cervix, adherent, top dose 5.12 µM)” are 0.933 and greater than 5120 nM.
The corresponding values for “HT-29 (large intestine, adherent, top dose 5.12 µM)” are 0.795 and 2380 nM.
Taken in the same sequence, the figures for “HT-115 (large intestine, adherent, top dose 5.12 µM)” were 0.981 and greater than 5120 nM.
“HT-144 (melanoma, adherent, top dose 5.12 µM)”: the AUC was 0.959 and the IC50 was greater than 5120 nM.
